The supplement of paper PMC10369915
Some of the results follow. No stated cut-off is given here; in the data, active = 3.2 or more and inactive = the rest. Most of these values are background signal.

B1: TTC7A_Y396 (peptide)
chain: GRRGQYVMLSE
B2: TTN_Y20731_S20726P (peptide)
chain: PKDSAYVTWEP
B3: TTN_Y13435 (peptide)
chain: IETGRYEILTE
B4: TTN_Y2112_P2107L (peptide)
chain: LECEWYKNGVK
B5: TTN_Y19764_YF (peptide)
chain: GFITSYREEEQ
B6: TTN_Y19760_YF (peptide)
chain: AKIDGYITSFR
B7: TTC21B_Y1213 (peptide)
chain: IQSAKYDMAED
B8: TTF1_Y476_E473K (peptide)
chain: DSKIRYLSADS
B9: TTLL10_Y446 (peptide)
chain: EHLNRYISDTF
B10: TTN_Y28165 (peptide)
chain: KPGVNYYFRVS
B11: TTN_Y20412_A20408T (peptide)
chain: ITKNPYDPPGR
B12: TTC3_Y1288_K1289M (peptide)
chain: SEDANYMRVSC
B13: TSSK2_Y23_K27R (peptide)
chain: LGKGSYAKVRS
B14: TTN_Y20178_T20179K (peptide)
chain: IPQEEYKATGL
B15: TTC37_Y1074_A1077D (peptide)
chain: ESSKAYERDLS
B16: TTN_Y13423 (peptide)
chain: AEVIWYKGDEE
B17: TTN_Y13435_I13430T (peptide)
chain: TETGRYEILTE
B18: TTN_Y21853_C21851R (peptide)
chain: CHKRTYKVTGL
B19: TTN_Y22256_I22261T (peptide)
chain: TDGIAYEFRVT

Target: SHP2 C-SH2 domain E139D
Assay: enrichment score (SH2-bound / input frequency) (ratio); bacterial display of known human phosphotyrosine sites (pTyr-Var adds point mutants) read by sequencing; higher = stronger binding; tyrosines were phosphorylated by kinases first
Conditions: peptide library: pTyr-Var
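Further: displayed peptides selected on beads carrying the immobilized SH2 domain, with library peptides lacking any tyrosine serving as negative controls.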

Enrichment score, inactive:
B1 0.193
B2 0.688
B3 0.686
B4 1.18
B5 0.895
B6 0.864
B7 0.621
B8 0.553
B9 0.982
B10 1.01
B11 0.77
B12 0.64
B13 1.14
B14 0.884
B15 0.371
B16 0.805
B17 0.647
B18 1.42
B19 0.854

Target: SHP2 C-SH2 domain wild-type
Assay: as above
Conditions: peptide library: pTyr-Var

Enrichment score, inactive:
B1 0.232
B2 0.677
B3 0.958
B4 1.02
B5 0.816
B6 0.727
B7 0.529
B8 0.953
B9 0.797
B10 1.16
B11 0.567
B12 0.686
B13 1.23
B14 0.735
B15 0.542
B16 0.58
B17 0.78
B18 1.02
B19 1.23

Target: SHP2 N-SH2 domain L43F
Assay: as above
Conditions: peptide library: pTyr-Var

Enrichment score, inactive:
B1 0.297
B2 0.745
B3 0.636
B4 1.21
B5 0.944
B6 0.894
B7 0.686
B8 0.58
B9 1.01
B10 1.01
B11 0.67
B12 0.55
B13 0.931
B14 0.727
B15 0.451
B16 0.757
B17 0.772
B18 1.05
B19 0.905

Target: SHP2 N-SH2 domain T42A
Assay: as above
Conditions: peptide library: pTyr-Var

Enrichment score, inactive:
B1 0.225
B2 0.593
B3 0.82
B4 0.647
B5 0.734
B6 0.815
B7 0.5
B8 0.462
B9 0.638
B10 0.804
B11 0.513
B12 0.583
B13 0.826
B14 0.635
B15 0.391
B16 0.667
B17 0.752
B18 1.08
B19 0.687

Target: SHP2 N-SH2 domain T52S
Assay: as above
Conditions: peptide library: pTyr-Var

Enrichment score, inactive:
B1 0.261
B2 0.587
B3 0.762
B4 0.725
B5 0.962
B6 0.82
B7 0.611
B8 0.415
B9 0.742
B10 0.786
B11 0.608
B12 0.682
B13 0.917
B14 0.727
B15 0.556
B16 0.797
B17 0.872
B18 1.21
B19 0.656

Target: SHP2 N-SH2 domain wild-type
Assay: as above
Conditions: peptide library: pTyr-Var

Enrichment score, inactive:
B1 0.319
B2 0.796
B3 0.87
B4 1.41
B5 0.847
B6 0.764
B7 0.77
B8 0.775
B9 0.862
B10 1.11
B11 0.736
B12 0.81
B13 0.984
B14 1.04
B15 0.611
B16 0.783
B17 0.915
B18 1.19
B19 1.14
